In patent US6448281B1 (Boehringer Ingelheim (Canada) Ltd., priority 2000, dated 2002) one finds IC50 data, which are given here for 48 molecules.

Each structure is given as a SMILES string. Where two headings read alike, the source gives them in different places. Some results are limits rather than exact numbers.

The term IC50 denotes the concentration that inhibits the measured activity by half. A high value points to a need for much substance.

For this assay, the target named is hepatitis C virus RNA dependent polymerase (NS5B) (Hepacivirus hominis (Hepatitis C virus), UniProt P26663). Description: Inhibition of NS5B RNA dependent RNA polymerase activity (SPA, UMP-[5,6 3H] incorporation).
The mark [1] stands for this setting: IC50 μM, first compound table (printed title TABLE 10; Table 1).

`O=C(NC1CCCC(NC(=O)C2CCCCC2C(=O)O)C1)c1ccc2c(c1)nc(-c1ccoc1)n2C1CCCCC1` (stereo not drawn) [Entry 1224]: the IC50 under setting [1] lay within 10 to 25 µM. Take `CNc1nc([C@H](Cc2ccc(OCC(=O)O)cc2)NC(=O)c2ccc3c(c2)nc(-c2ccoc2)n3C2CCCCC2)cs1` [Entry 1140, {4-[(S)-2-{[1-(1-Cyclohexyl-2-furan-3-yl-1H-benzimidazol-5-yl)-methanoyl]-amino}-2-(2-methylamino-thiazol-4-yl)-ethyl]-phenoxy}-acetic Acid]: the IC50 under setting [1] lay within 1 to 5 µM.

As to `O=C(O)c1ccc(CN2CCC(NC(=O)c3ccc4c(c3)nc(-c3ccoc3)n4C3CCCCC3)C2)cc1` (stereo not drawn) [Entry 1272], the IC50 under setting [1] fell in the range of 10 to 25 µM. In the case of `CC(CC(=O)Nc1ccc(CCCC(=O)O)cc1)NC(=O)c1ccc2c(c1)nc(-c1ccoc1)n2C1CCCCC1` (stereo not drawn) [Entry 1164], the IC50 under setting [1] was in the range of 10 to 25 µM. On to `O=C(N[C@@H](Cc1c[nH]c2ccc(O)cc12)C(=O)O)c1ccc2c(c1)nc(-c1ccco1)n2C1CCCCC1` [Entry 12007], for which the IC50 (IC50, Table 12) is less than 1 µM.

Under “IC50, Table 12”, `O=C(N[C@@H](Cc1c[nH]c2ccc(O)cc12)C(=O)O)c1ccc2c(c1)nc(-c1ccccn1)n2C1CCCCC1` [Entry 12011] gave an IC50 of less than 1 µM.

Where the note is “IC50 μM, Table 22”, `C[C@@H]1CCCC[C@H]1n1c(-c2ccoc2)nc2cc(C(=O)N[C@@H](Cc3c[nH]c4ccc(O)cc34)C(=O)O)ccc21` [Entry 22021] showed an IC50 of less than 1 µM. Regarding `O=C(N[C@@H](Cc1ccc(-n2nnc(C(F)(F)F)c2C(=O)O)cc1)C(=O)O)c1ccc2c(c1)nc(-c1ccoc1)n2C1CCCCC1` [Entry 1083], the IC50 under setting [1] was in the range of 10 to 25 µM. `Cn1cc(C[C@H](NC(=O)c2ccc3c(c2)nc(-c2ccoc2)n3C2CCCCC2)c2csc(N)n2)c2cc(O)ccc21` [Entry 14003, 1-Cyclohexyl-2-furan-3-yl-1H-benzimidazole-5-carboxylic Acid [(S)-1-(2-Amino-thiazol-4-yl)-2-(5-hydroxy-1-methyl-1H-indol-3-yl)-ethyl]-amide] yielded an IC50 (IC50, Table 14) of less than 1 µM. Take `CC(CC(=O)Nc1cccc(-c2ccc(C(=O)O)o2)c1)NC(=O)c1ccc2c(c1)nc(-c1ccoc1)n2C1CCCCC1` (stereo not drawn) [Entry 1166]: under setting [1], the IC50 lay in the range of 5 to 10 µM. `O=C(N[C@@H](Cc1c[nH]c2ccc(O)cc12)C(=O)O)c1ccc2c(c1)nc(-c1ccoc1)n2[C@@H]1CCCC[C@H]1CO` [Entry 22019] had an IC50 (IC50 μM, Table 22) of less than 1 µM. Under setting [1], `Cc1ccc(C(NC(=O)c2ccc3c(c2)nc(-c2ccoc2)n3C2CCCCC2)C(=O)O)cc1C` (stereo not drawn) [Entry 1010] displayed an IC50 of 1 to 5 µM.

Where the note is “IC50 μM, Table 2”, `COc1ccc(CNC(=O)c2ccc3c(c2)nc(-c2ccccn2)n3C2CCCCC2)c(OC)c1` [Entry 2007] had an IC50 of 10 to 25 µM. The same measure, in the same setting: the figure for `O=C(N[C@@H](Cc1c[nH]c2ccc(O)cc12)C(=O)O)c1ccc2c(c1)nc(-c1ccc(O)nc1)n2C1CCCCC1` [Entry 2140] is less than 1 µM. Consider `CC(C)[C@@H](CO)n1c(-c2ccoc2)nc2cc(C(=O)N[C@@H](Cc3c[nH]c4ccc(O)cc34)C(=O)O)ccc21` [Entry 22014], for which the IC50 (IC50 μM, Table 22) is less than 1 µM. Where the note is “IC50, Table 12”, `O=C(N[C@@H](Cc1c[nH]c2ccc(O)cc12)C(=O)O)c1ccc2c(c1)nc(-c1ccsc1)n2C1CCCCC1` [Entry 12008] came in with an IC50 of less than 1 µM. For the molecule `O=C(NC(Cc1ccc(C2CC2C(=O)O)cc1)C(=O)O)c1ccc2c(c1)nc(-c1ccoc1)n2C1CCCCC1` (stereo not drawn) [Entry 16039], the IC50 (IC50, Table 16) is less than 1 µM. On to `O=C(O)CCNC(=O)NC1CCCC(NC(=O)c2ccc3c(c2)nc(-c2ccoc2)n3C2CCCCC2)C1` (stereo not drawn) [Entry 1213], for which, under setting [1], the IC50 fell in the range of 10 to 25 µM. As for `COc1ccc(CNC(=O)c2ccc3c(c2)nc(-c2ccccn2)n3C2CCCCC2)cc1OC` [Entry 2075], for the setting “IC50 μM, Table 2”, the IC50 fell in the range of 1 to 5 µM.

With `O=C(N[C@@H](Cc1c[nH]c2ccc(O)cc12)C(=O)O)c1ccc2c(c1)nc(-c1ccc3ccccc3n1)n2C1CCCCC1` [Entry 2116], the IC50 (IC50 μM, Table 2) is 5 to 10 µM. In turn, `COc1ccc(-c2nc3cc(C(=O)NCCc4ccc(OC)c(OC)c4)ccc3n2C2CCCCC2)cc1` [Entry 2077] displayed an IC50 (IC50 μM, Table 2) of 5 to 10 µM.

`COc1ccc([C@H](NC(=O)c2ccc3c(c2)nc(-c2ccoc2)n3C2CCCCC2)C(=O)O)cc1OC` [Entry 16006, (S)-{[1-(1-Cyclohexyl-2-furan-3-yl-1H-benzoimidazole-5-yl)-methanoyl]-amino}-(3,4-dimethoxyphenyl)acetic Acid]: the IC50 (IC50, Table 16) was less than 1 µM.

On to `COC(=O)[C@H](Cc1c(C)[nH]c2ccc(OCC(=O)O)cc12)NC(=O)c1ccc2c(c1)nc(-c1ccoc1)n2C1CCCCC1` [Entry 11015], for which the IC50 (IC50, Table 11) was less than 1 µM.

As for `O=C(N[C@@H](Cc1c[nH]c2ccccc12)C(=O)O)c1ccc2c(c1)nc(-c1ccoc1)n2C1CCCCC1` [Entry 11003], the IC50 was less than 1 µM. The molecule `O=C(O)c1ccc(CN2CCC(NC(=O)c3ccc4c(c3)nc(-c3ccoc3)n4C3CCCCC3)CC2)cc1` [Entry 1276] yielded an IC50 under setting [1] of 10 to 25 µM. In the case of `O=C(NCC1CCN(C(=O)Nc2ccccc2C(=O)O)CC1)c1ccc2c(c1)nc(-c1ccoc1)n2C1CCCCC1` [Entry 1197], under setting [1], the IC50 fell in the range of 10 to 25 µM. For the molecule `O=C(O)COc1ccc2c(c1)c(CCNC(=O)c1ccc3c(c1)nc(-c1ccoc1)n3C1CCCCC1)cn2CC(=O)O` [Entry 11012], the IC50 (IC50, Table 11) was less than 1 µM.

As for `CC(CC(=O)Nc1cccc(CC(=O)O)c1)NC(=O)CC(C)NC(=O)c1ccc2c(c1)nc(-c1ccoc1)n2C1CCCCC1` (stereo not drawn) [Entry 1168], the IC50 under setting [1] is 10 to 25 µM. The molecule `O=C(N[C@@H](Cc1c[nH]c2ccc(O)cc12)C(=O)O)c1ccc2c(c1)nc(/C=C/c1ccc([N+](=O)[O-])cc1)n2C1CCCCC1` [Entry 2097] showed an IC50 (IC50 μM, Table 2) of 1 to 5 µM.

Turning to `O=C(O)CCCCOc1ccc(C[C@H](NC(=O)c2ccc3c(c2)nc(-c2ccoc2)n3C2CCCCC2)C(=O)O)cc1` [Entry 16042], the IC50 (IC50, Table 16) was less than 1 µM. Regarding `O=C(O)COc1ccc(CN2CCC(CNC(=O)c3ccc4c(c3)nc(-c3ccoc3)n4C3CCCCC3)CC2)cc1` [Entry 1283], under setting [1], the IC50 was 10 to 25 µM. On to `COc1ccc(C(NC(=O)c2ccc3c(c2)nc(-c2ccc(O)cc2)n3C2CCCCC2)C(=O)O)cc1OC` (stereo not drawn) [Entry 2033], for which the IC50 (IC50 μM, Table 2) lay in the range of 10 to 25 µM. Under setting [1], `O=C(O)COc1c(F)cc(CC(NC(=O)c2ccc3c(c2)nc(-c2ccoc2)n3C2CCCCC2)C(=O)O)cc1F` (racemic) [Entry 1144, 3-(4-Carboxymethoxy-3,5-difluoro-phenyl)-2-{[1-(1-cyclohexyl-2-furan-3-yl-1H-benzimidazol-5-yl)-methanoyl]-amino}-propionic Acid] registered an IC50 of 1 to 5 µM. `COC(=O)[C@H](CCc1ccc(O)cc1)NC(=O)c1ccc2c(c1)nc(-c1ccoc1)n2C1CCCCC1` [Entry 1031] displayed an IC50 under setting [1] of 1 to 5 µM.

In turn, `O=C(N[C@@H](Cc1ccc(O)cc1)c1cscn1)c1ccc2c(c1)nc(-c1ccoc1)n2C1CCCCC1` [Entry 1250, 1-Cyclohexyl-2-furan-3-yl-1H-benzimidazole-5-carboxylic Acid [(S)-2-(4-Hydroxy-phenyl)-1-thiazol-4-yl-ethyl]-amide] came in with an IC50 under setting [1] of 1 to 5 µM.

The molecule `CN1CCCC1CCNC(=O)[C@H](Cc1c[nH]c2ccc(O)cc12)NC(=O)c1ccc2c(c1)nc(-c1ccoc1)n2C1CCCCC1` (mixture of isomers) [Entry 13020, 1-Cyclohexyl-2-furan-3-yl-1H-benzimidazole-5-carboxylic Acid {(S)-2-(5-Hydroxy-1H-indol-3-yl)-1-[2(RS)-(1-methyl-pyrrolidin-2-yl)-ethylcarbamoyl]-ethyl}-amide] returned an IC50 (IC50, Table 13) of less than 1 µM.

In turn, `O=C(NC1CCCNC1)c1ccc2c(c1)nc(-c1ccoc1)n2C1CCCCC1` (stereo not drawn) [Entry 1184] gave an IC50 under setting [1] of 5 to 10 µM. Still for that read-out and setting: the figure for `CC(C)(CC(=O)O)C(=O)NC1CCCC(NC(=O)c2ccc3c(c2)nc(-c2ccoc2)n3C2CCCCC2)C1` (stereo not drawn) [Entry 1226] is 5 to 10 µM. Consider `COc1ccc(C(NC(=O)c2ccc3c(c2)nc(-c2ccoc2)n3C2CCCCC2)C(C)C)cc1OC` (stereo not drawn) [Entry 1006], for which the IC50 under setting [1] is 5 to 10 µM. The molecule `O=C(NC(Cc1c[nH]c2ccc(O)cc12)C(=O)O)c1ccc2c(c1)nc(-c1ccoc1)n2C1CC2CCC1C2` (stereo not drawn) [Entry 22009] had an IC50 (IC50 μM, Table 22) of less than 1 µM. Consider `NC(=O)[C@H](Cc1ccc(O)c(/C=C/C(=O)O)c1)NC(=O)c1ccc2c(c1)nc(-c1ccoc1)n2C1CCCCC1` [Entry 16062, (E)-3-[5-((S)-2-Carbamoyl-2-{[1-(1-cyclohexyl-2-furan-3-yl-1H-benzimidazol-5-yl)-methanoyl]-amino}-ethyl)-2-hydroxy-phenyl]-acrylic Acid], for which the IC50 (IC50, Table 16) is less than 1 µM. Regarding `COc1ccc(C(NC(=O)c2ccc3c(c2)nc(-c2ccsc2)n3C2CCCCC2)C(=O)O)cc1OC` (stereo not drawn) [Entry 2067], the IC50 (IC50 μM, Table 2) was in the range of 1 to 5 µM.

Under “IC50 μM, Table 3”, `COC(=O)[C@H](Cc1c[nH]c2ccc(OCC(=O)O)cc12)NC(=O)c1ccc2c(c1)nc(-c1ccoc1)n2C(C)C` [Entry 3005] registered an IC50 of 1 to 5 µM. Under “IC50 μM, Table 2”, `O=C(N[C@@H](C(=O)O)c1ccccc1)c1ccc2c(c1)nc(-c1ccccn1)n2C1CCCCC1` [Entry 2014] gave an IC50 of 10 to 25 µM. `NC(=O)[C@H](Cc1c[nH]c2ccc(NC(=O)C(=O)NO)cc12)NC(=O)c1ccc2c(c1)nc(-c1ccoc1)n2C1CCCCC1` [Entry 13011, N^1-[3-((S)-2-Carbamoyl-2-{[1-(1-cyclohexyl-2-furan-3-yl-1H-benzimidazol-5-yl)-methanoyl]-amino}-ethyl)-1H-indol-5-yl]-N^2-hydroxy-oxalamide] yielded an IC50 (IC50, Table 13) of less than 1 µM. Consider `O=C(O)c1ccc2c(c1)nc(-c1nccs1)n2C1CCCCC1` [Entry 7015], for which, where the note is “IC50 μM, Table 7”, the IC50 lay in the range of 1 to 5 µM. Where the note is “IC50 μM, Table 2”, `O=C(N[C@@H](Cc1c[nH]c2ccc(O)cc12)C(=O)O)c1ccc2c(c1)nc(-c1ccc(N3CCCC3)cc1)n2C1CCCCC1` [Entry 2101] had an IC50 of 1 to 5 µM. `Cc1cc(=O)oc2ccc(C[C@H](NC(=O)c3ccc4c(c3)nc(-c3ccoc3)n4C3CCCCC3)C(=O)O)cc12` [Entry 1126, (S)-2-{[1-(1-Cyclohexyl-2-furan-3-yl-1H-benzimidazol-5-yl)-methanoyl]-amino}-3-(4-methyl-2-oxo-2H-1-benzopyran-6-yl)-propionic Acid]: the IC50 under setting [1] was in the range of 1 to 5 µM.
